According to the supplement of paper PMC9588766:
Counter-ions that a name gives are not always drawn. In all, about 1,900 compounds were measured (“cell viability of compound + 1 nM pemigatinib relative to pemigatinib-only (DMSO) wells”: median about 0.95, lowest 2% from about 0.22 on). Some of the results follow.

Test system: PDC-DUC18828
Test: cell viability of compound + 1 nM pemigatinib relative to pemigatinib-only (DMSO) wells (fraction); PDC-DUC18828 is a patient-derived cholangiocarcinoma cell line; higher = less growth inhibition
Details: first compound 1 µM; pemigatinib concentration 1 nM; 72 h
Method: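 Selleck Bioactive library screen in the patient-derived FGFR2 fusion-positive ICC cell line PDC-DUC18828 (500 cells/well). Each compound was tested at 1 uM with 1 nM pemigatinib, in triplicate, for 72 h. Viability was read by CellTiter-Glo and normalised to plate DMSO controls. Value is the paper's averaged normalised viability.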

Row | SMILES | cell viability
1 | Fc1ccc(CNc2ncnc3ccc(F)cc23)cc1 [Spautin-1] + CCN1C(=O)N(c2c(F)c(OC)cc(OC)c2F)Cc2cnc3[nH]c(CN4CCOCC4)cc3c21 [pemigatinib] | 0.843
2 | O=S(=O)(N=Cc1c(O)ccc2ccccc12)c1cccs1 + CCN1C(=O)N(c2c(F)c(OC)cc(OC)c2F)Cc2cnc3[nH]c(CN4CCOCC4)cc3c21 [pemigatinib] | 0.955
3 | NC1=N[C@@]2(c3cc(NC(=O)c4ccc(F)cn4)ccc3F)COC[C@H]2CS1 + CCN1C(=O)N(c2c(F)c(OC)cc(OC)c2F)Cc2cnc3[nH]c(CN4CCOCC4)cc3c21 [pemigatinib] | 1.03
4 | COc1ccc2cc1Oc1ccc(cc1)C[C@H]1c3c(cc4c(c3Oc3cc5c(cc3OC)CCN(C)[C@@H]5C2)OCO4)CCN1C [Cepharanthine] + CCN1C(=O)N(c2c(F)c(OC)cc(OC)c2F)Cc2cnc3[nH]c(CN4CCOCC4)cc3c21 [pemigatinib] | 0.955
5 | O[C@@H]1CO[C@H]2[C@@H]1OC[C@@H]2O [Isosorbide] + CCN1C(=O)N(c2c(F)c(OC)cc(OC)c2F)Cc2cnc3[nH]c(CN4CCOCC4)cc3c21 [pemigatinib] | 1.02
6 | O=c1cc(CN2CCOCC2)occ1OCCCCCSc1ccnc2cc(C(F)(F)F)ccc12 + CCN1C(=O)N(c2c(F)c(OC)cc(OC)c2F)Cc2cnc3[nH]c(CN4CCOCC4)cc3c21 [pemigatinib] | 0.911
7 | CN(C)CCN1C(=O)c2cccc3cc(N)cc(c23)C1=O [Amonafide] + CCN1C(=O)N(c2c(F)c(OC)cc(OC)c2F)Cc2cnc3[nH]c(CN4CCOCC4)cc3c21 [pemigatinib] | 0.97
8 | CCOc1ccc(Cc2cc([C@@H]3O[C@H](CO)[C@@H](O)[C@H](O)[C@H]3O)ccc2Cl)cc1 [Dapagliflozin] + CCN1C(=O)N(c2c(F)c(OC)cc(OC)c2F)Cc2cnc3[nH]c(CN4CCOCC4)cc3c21 [pemigatinib] | 1.02
9 | CN(C)CCC(c1ccccc1)c1ccccn1 (centres undefined) [Pheniramine Maleate] + CCN1C(=O)N(c2c(F)c(OC)cc(OC)c2F)Cc2cnc3[nH]c(CN4CCOCC4)cc3c21 [pemigatinib] | 0.949
10 | CC(C)NCCCn1c(Sc2cc3c(cc2I)OCO3)nc2c(N)ncnc21 + CCN1C(=O)N(c2c(F)c(OC)cc(OC)c2F)Cc2cnc3[nH]c(CN4CCOCC4)cc3c21 [pemigatinib] | 0.489
11 | Nc1ccn([C@@H]2O[C@H](CO)[C@@H](O)[C@H]2O)c(=O)n1 [Cytidine] + CCN1C(=O)N(c2c(F)c(OC)cc(OC)c2F)Cc2cnc3[nH]c(CN4CCOCC4)cc3c21 [pemigatinib] | 0.989
12 | Cc1c(O)cccc1C(=O)N[C@@H](CSc1ccccc1)[C@H](O)CN1C[C@H]2CCCC[C@H]2C[C@H]1C(=O)NC(C)(C)C [Nelfinavir Mesylate] + CCN1C(=O)N(c2c(F)c(OC)cc(OC)c2F)Cc2cnc3[nH]c(CN4CCOCC4)cc3c21 [pemigatinib] | 0.966
13 | CCCCCCCCCCCCCCCCO [1-Hexadecanol] + CCN1C(=O)N(c2c(F)c(OC)cc(OC)c2F)Cc2cnc3[nH]c(CN4CCOCC4)cc3c21 [pemigatinib] | 0.997
14 | CCN1/C(=C/C(C)=O)Sc2ccc(OC)cc21 + CCN1C(=O)N(c2c(F)c(OC)cc(OC)c2F)Cc2cnc3[nH]c(CN4CCOCC4)cc3c21 [pemigatinib] | 0.933
15 | CCCCC(C=O)NC(=O)C(CC(C)C)NC(=O)C(CC(C)C)NC(C)=O (centres undefined) + CCN1C(=O)N(c2c(F)c(OC)cc(OC)c2F)Cc2cnc3[nH]c(CN4CCOCC4)cc3c21 [pemigatinib] | 0.544
16 | Cc1cc(C)cc(NC(=O)Cc2ccc(OC(C)(C)C(=O)O)cc2)c1 [Efaproxiral Sodium] + CCN1C(=O)N(c2c(F)c(OC)cc(OC)c2F)Cc2cnc3[nH]c(CN4CCOCC4)cc3c21 [pemigatinib] | 0.974
17 | Cc1ccc(O)c([C@H](CCN(C(C)C)C(C)C)c2ccccc2)c1 [Tolterodine tartrate] + CCN1C(=O)N(c2c(F)c(OC)cc(OC)c2F)Cc2cnc3[nH]c(CN4CCOCC4)cc3c21 [pemigatinib] | 0.911
18 | CCCCOc1ccc(CC(=O)NO)cc1 [Bufexamac] + CCN1C(=O)N(c2c(F)c(OC)cc(OC)c2F)Cc2cnc3[nH]c(CN4CCOCC4)cc3c21 [pemigatinib] | 0.829
19 | NC(=O)NO [Hydroxyurea] + CCN1C(=O)N(c2c(F)c(OC)cc(OC)c2F)Cc2cnc3[nH]c(CN4CCOCC4)cc3c21 [pemigatinib] | 1.04
20 | Clc1ccccc1C(c1ccccc1)(c1ccccc1)n1ccnc1 [Clotrimazole] + CCN1C(=O)N(c2c(F)c(OC)cc(OC)c2F)Cc2cnc3[nH]c(CN4CCOCC4)cc3c21 [pemigatinib] | 1.01

Row | SMILES | cell viability
21 | Clc1ccc(COC(Cn2ccnc2)c2ccc(Cl)cc2Cl)cc1 (centres undefined) [Econazole nitrate] + CCN1C(=O)N(c2c(F)c(OC)cc(OC)c2F)Cc2cnc3[nH]c(CN4CCOCC4)cc3c21 [pemigatinib] | 0.879
22 | CO[C@H]1C(=O)[C@]2(C)[C@@H](OC)C[C@H]3OC[C@@]3(OC(C)=O)[C@H]2[C@H](OC(=O)c2ccccc2)[C@]2(O)C[C@H](OC(=O)[C@H](O)[C@@H](NC(=O)OC(C)(C)C)c3ccccc3)C(C)=C1C2(C)C [Cabazitaxel] + CCN1C(=O)N(c2c(F)c(OC)cc(OC)c2F)Cc2cnc3[nH]c(CN4CCOCC4)cc3c21 [pemigatinib] | 0.267
23 | O=S(=O)(O)CCSSCCS(=O)(=O)O [Dimesna] + CCN1C(=O)N(c2c(F)c(OC)cc(OC)c2F)Cc2cnc3[nH]c(CN4CCOCC4)cc3c21 [pemigatinib] | 0.984
24 | CC(C)(C)c1ccc(S(=O)(=O)NCc2ccc(C(=O)Nc3cccnc3)cc2)cc1 + CCN1C(=O)N(c2c(F)c(OC)cc(OC)c2F)Cc2cnc3[nH]c(CN4CCOCC4)cc3c21 [pemigatinib] | 0.527
25 | Cn1cnc(N)c2ncnc1-2 [3-Methyladenine] + CCN1C(=O)N(c2c(F)c(OC)cc(OC)c2F)Cc2cnc3[nH]c(CN4CCOCC4)cc3c21 [pemigatinib] | 0.963
26 | COc1cc2c(cc1OC)CN(CCc1ccc(NC(=O)c3cccc4c(=O)c5cccc(OC)c5[nH]c34)cc1)CC2 + CCN1C(=O)N(c2c(F)c(OC)cc(OC)c2F)Cc2cnc3[nH]c(CN4CCOCC4)cc3c21 [pemigatinib] | 0.952
27 | CCN(CCCc1ccccc1)CCCc1ccccc1 [Alverine Citrate] + CCN1C(=O)N(c2c(F)c(OC)cc(OC)c2F)Cc2cnc3[nH]c(CN4CCOCC4)cc3c21 [pemigatinib] | 0.96
28 | Cc1cc(CS(=O)(=O)c2ccccc2)cc(OCc2ccc(CN3CCC[C@@H]3CO)cc2)c1 + CCN1C(=O)N(c2c(F)c(OC)cc(OC)c2F)Cc2cnc3[nH]c(CN4CCOCC4)cc3c21 [pemigatinib] | 0.973
29 | CCc1cc(/C(C)=N/OCc2ccc(C3CCCCC3)c(C(F)(F)F)c2)ccc1CN1CC(C(=O)O)C1 [BAF312 (Siponimod)] + CCN1C(=O)N(c2c(F)c(OC)cc(OC)c2F)Cc2cnc3[nH]c(CN4CCOCC4)cc3c21 [pemigatinib] | 0.993
30 | C=CCN1CCCC1CNC(=O)c1cc2nn[nH]c2cc1OC (centres undefined) [Alizapride HCl] + CCN1C(=O)N(c2c(F)c(OC)cc(OC)c2F)Cc2cnc3[nH]c(CN4CCOCC4)cc3c21 [pemigatinib] | 0.954
31 | CC(C)c1onc(-c2c(Cl)cccc2Cl)c1COc1ccc(/C=C/c2cccc(C(=O)O)c2)c(Cl)c1 + CCN1C(=O)N(c2c(F)c(OC)cc(OC)c2F)Cc2cnc3[nH]c(CN4CCOCC4)cc3c21 [pemigatinib] | 0.884
32 | NC(=O)CCCSc1nc(N)nc(-c2c(Cl)cc3c4c(cccc24)COC3)n1 + CCN1C(=O)N(c2c(F)c(OC)cc(OC)c2F)Cc2cnc3[nH]c(CN4CCOCC4)cc3c21 [pemigatinib] | 0.317
33 | Nc1nc(Nc2ccc(S(N)(=O)=O)cc2)nn1C(=O)c1c(F)cccc1F + CCN1C(=O)N(c2c(F)c(OC)cc(OC)c2F)Cc2cnc3[nH]c(CN4CCOCC4)cc3c21 [pemigatinib] | 0.899
34 | N#CC(=C(/N)Sc1ccccc1N)/C(C#N)=C(\N)Sc1ccccc1N + CCN1C(=O)N(c2c(F)c(OC)cc(OC)c2F)Cc2cnc3[nH]c(CN4CCOCC4)cc3c21 [pemigatinib] | 0.959
35 | Cc1[nH]c(/C=C2\C(=O)Nc3ccc(S(=O)(=O)Cc4c(Cl)cccc4Cl)cc32)c(C)c1C(=O)N1CCC[C@@H]1CN1CCCC1 + CCN1C(=O)N(c2c(F)c(OC)cc(OC)c2F)Cc2cnc3[nH]c(CN4CCOCC4)cc3c21 [pemigatinib] | 0.955
36 | COc1ccc(CNCc2cccc3ccccc23)cc1 + CCN1C(=O)N(c2c(F)c(OC)cc(OC)c2F)Cc2cnc3[nH]c(CN4CCOCC4)cc3c21 [pemigatinib] | 0.904
37 | NC(=O)[C@@H](CCC(F)(F)F)N(Cc1ccc(-c2ncon2)cc1F)S(=O)(=O)c1ccc(Cl)cc1 + CCN1C(=O)N(c2c(F)c(OC)cc(OC)c2F)Cc2cnc3[nH]c(CN4CCOCC4)cc3c21 [pemigatinib] | 0.89
38 | CC(C)(Oc1ccc(C2CC2(Cl)Cl)cc1)C(=O)O (centres undefined) [Ciprofibrate] + CCN1C(=O)N(c2c(F)c(OC)cc(OC)c2F)Cc2cnc3[nH]c(CN4CCOCC4)cc3c21 [pemigatinib] | 0.982
39 | NC(=O)c1cccnc1 [Nicotinamide (Vitamin B3)] + CCN1C(=O)N(c2c(F)c(OC)cc(OC)c2F)Cc2cnc3[nH]c(CN4CCOCC4)cc3c21 [pemigatinib] | 0.994
